Reference: patent publication US20220306753A1 (JN BIOSCIENCES, published 2022)

T1: CD80-FLAG-GPI (human)
T1 construct: also called CHO-K1/CD80 cells
T1 chain: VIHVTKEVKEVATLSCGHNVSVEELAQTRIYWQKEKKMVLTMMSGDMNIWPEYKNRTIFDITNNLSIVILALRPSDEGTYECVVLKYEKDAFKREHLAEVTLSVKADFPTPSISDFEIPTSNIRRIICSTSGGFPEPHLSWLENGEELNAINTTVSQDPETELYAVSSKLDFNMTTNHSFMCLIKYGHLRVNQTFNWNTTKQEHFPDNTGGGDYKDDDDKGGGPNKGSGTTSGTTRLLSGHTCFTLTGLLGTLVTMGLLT

T2: CD86-FLAG-GPI (human)
T2 construct: also called CHO-K1/CD86 cells
T2 chain: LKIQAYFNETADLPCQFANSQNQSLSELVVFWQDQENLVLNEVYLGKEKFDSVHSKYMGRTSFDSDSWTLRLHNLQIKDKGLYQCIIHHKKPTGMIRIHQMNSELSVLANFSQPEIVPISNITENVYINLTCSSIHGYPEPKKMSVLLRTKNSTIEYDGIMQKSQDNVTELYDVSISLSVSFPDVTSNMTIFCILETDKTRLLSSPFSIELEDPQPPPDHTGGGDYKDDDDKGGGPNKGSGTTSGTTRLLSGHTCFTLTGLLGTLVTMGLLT

T3: Human B7-2/CD86 Protein, Fc Tag (human, UniProt P42081 24-247)
T3 construct: Bought protein coated on the ELISA plate; also called Cat. No. CD6-H5257, Acro Biosystems; not shown: Fc tag of the bought protein
T3 sequence (looked up): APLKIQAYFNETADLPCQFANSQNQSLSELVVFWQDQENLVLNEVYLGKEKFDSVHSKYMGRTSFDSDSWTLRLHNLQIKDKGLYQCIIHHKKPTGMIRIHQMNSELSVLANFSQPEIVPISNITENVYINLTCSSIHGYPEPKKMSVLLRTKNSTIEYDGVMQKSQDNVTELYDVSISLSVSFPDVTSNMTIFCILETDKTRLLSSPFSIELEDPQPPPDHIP

T4: Human IL-2R beta/CD122 Protein, Fc Tag (human, UniProt P14784 27-239)
T4 construct: Bought protein coated on the ELISA plate; also called Cat. No. ILB-H5253, Acro Biosystems; not shown: Fc tag of the bought protein
T4 sequence (looked up): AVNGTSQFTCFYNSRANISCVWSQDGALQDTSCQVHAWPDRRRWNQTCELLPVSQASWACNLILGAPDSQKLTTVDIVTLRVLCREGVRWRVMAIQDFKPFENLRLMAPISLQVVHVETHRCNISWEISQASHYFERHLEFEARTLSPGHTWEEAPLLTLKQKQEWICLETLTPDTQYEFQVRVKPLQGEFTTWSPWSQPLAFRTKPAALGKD

T5: Human B7-1/CD80 Protein, Mouse IgG2a Tag (human, UniProt P33681 35-242)
T5 construct: Bought protein coated on the ELISA plate; also called Cat. No. B71-H52A4, Acro Biosystems; not shown: mouse IgG2a tag of the bought protein
T5 sequence (looked up): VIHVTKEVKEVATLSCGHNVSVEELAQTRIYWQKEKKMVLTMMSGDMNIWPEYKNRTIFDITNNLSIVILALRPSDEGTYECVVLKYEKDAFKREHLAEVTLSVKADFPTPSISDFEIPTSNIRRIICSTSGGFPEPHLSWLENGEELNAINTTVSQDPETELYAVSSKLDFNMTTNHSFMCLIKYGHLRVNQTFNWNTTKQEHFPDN


Tests used:
CD80-FLAG-GPI [1] = biological target: T1, CD80-FLAG-GPI; assay: flow cytometry on CHO-K1/CD80 cells, binder at 500 ng/ml
Procedure: (§1) Purified test samples (HuABC2-CH3-CTLA4YE, HuABC2-Ck-CTLA4YE, HuABC2-CTLA4YE-VH, and HuABC2-CTLA4YE-Vk) and belatacept, starting at 10 μg/mland five steps of 4-fold serial dilutions, were incubated with CHO-K1/CD80 or CHO-K1/CD86 cells in FACS Buffer (PBS containing 0.5% BSA and 0.05% sodium azide) for 30 min at 4° C. After washing with FACS Buffer, cells were incubated with PE-labeled goat anti-human IgG antibody (SouthernBiotech, Birmingham, Ala.) in FACS Buffer for 20 min at 4° C. After washing and suspension in FACS Buffer, stained cells were subjected to flow cytometry.
(§2) The two expression vectors (pHC644 and pHC645) were individually transfected into HEK293 cells as described above. Their expression level in culture supernatants was measured by sandwich ELISA as described above. Binding of HuABC77D-CH3-CTLA4YE and HuABC77D-CTLA4YE-VH to CHO-K1/CD80 and CHO-K1/CD86 cells was analyzed by flow cytometry as described above. Belatacept was used as a reference for binding to CD80 and CD86. The test samples were used at 500 ng/ml and four steps of 3-fold serial dilutions.
(§3) The results of binding to CHO-K1/CD80 and CHO-K1/CD86 cells are shown in FIGS. 13A and B, respectively.

CD86-FLAG-GPI [2] = biological target: T2, CD86-FLAG-GPI; assay: flow cytometry on CHO-K1/CD86 cells, binder at 500 ng/ml
Procedure: as §1, §2, §3

[3] = biological target: T3, Human B7-2/CD86 Protein, Fc Tag; assay: ELISA, plate coated with 1 µg/ml CD86 Fc tag protein, binder from 0.5 µg/ml in 2-fold dilutions, anti-human kappa-HRP
Procedure: (§4) Binding of HuABC2-CTLA4 and HuABC2-CTLA4YE to human CD122, CD80 and CD86 was analyzed by ELISA. Wells of an ELISA plate were coated with 1 μg/ml of either CD122 (Human IL-2R beta/CD122 Protein, Fc Tag; Cat. No. ILB-H5253, Acro Biosystems, Newark, Del.), CD80 (Human B7-1/CD80 Protein, Mouse IgG2a Tag; Cat. No. B71-H52A4, Acro Biosystems) or CD86 (Human B7-2/CD86 Protein, Fc Tag; Cat. No. CD6-H5257, Acro Biosystems) in PBS. After blocking with Blocking Buffer and washing the wells with Wash Buffer, transiently expressed HuABC2-CTLA4 and HuABC2-CTLA4YE at 0.5 μg/ml and serial 2-fold dilutions in ELISA Buffer were applied to the wells in duplicates. Purified HuABC2 at 0.5 μg/mland serial 2-fold dilutions was used as a control. After incubation for 1 hr at room temperature and washing with Wash Buffer, bound antibodies were detected using HRP-conjugated goat anti-human kappa chain polyclonal antibody. After incubation for 30 min and washing with Wash Buffer, color development was initiated by adding ABTS substrate and stopped with 2% oxalic acid. Absorbance was read at 405 nm.

[4] = biological target: T4, Human IL-2R beta/CD122 Protein, Fc Tag; assay: ELISA, plate coated with 1 µg/ml CD122 Fc tag protein, binder from 0.5 µg/ml in 2-fold dilutions, anti-human kappa-HRP
Procedure: as §4

[5] = biological target: T5, Human B7-1/CD80 Protein, Mouse IgG2a Tag; assay: ELISA, plate coated with 1 µg/ml CD80 mouse IgG2a tag protein, binder from 0.5 µg/ml in 2-fold dilutions, anti-human kappa-HRP
Procedure: as §4

CD80-FLAG-GPI [6] = biological target: T1, CD80-FLAG-GPI; assay: flow cytometry on CHO-K1/CD80 cells, binder at 200 ng/ml
Procedure: as §1
(§5) The two expression vectors (pHC642 and pHC630) were individually transfected into HEK293 cells as described above. Their expression level in culture supernatants was measured by sandwich ELISA as described above. Binding of transiently expressed HuABC101-CTLA4YE-VH and HuABC101-CH3-CTLA4YE to CD80 and CD86 was analyzed by flow cytometry as described above. Belatacept was used as a reference for binding to CD80 and CD86.
(§6) Binding of HuABC101-CH3-CTLA4YE to each of CD80 and CD86 was much weaker than the binding of HuABC101-CTLA4YE-VH.

CD86-FLAG-GPI [7] = biological target: T2, CD86-FLAG-GPI; assay: flow cytometry on CHO-K1/CD86 cells, binder at 200 ng/ml
Procedure: as §1, §5, §6

CD80-FLAG-GPI [8] = biological target: T1, CD80-FLAG-GPI; assay: flow cytometry on CHO-K1/CD80 cells, binder at 625 ng/ml, PE anti-human IgG
Procedure: (§7) CHO-K1 stable transfectants expressing CD80-FLAG-GPI (CHO-K1/CD80) and CD86-FLAG-GPI (CHO-K1/CD86) were generated by electroporation with pFCm553 and pFCm554, respectively, as described above. Binding of HuABC2-CH3-CTLA4YE, HuABC2-Ck-CTLA4YE, HuABC2-CTLA4YE-VH and HuABC2-CTLA4YE-Vk to CHO-K1/CD80 and CHO-K1/CD86 cells was analyzed by flow cytometry. Belatacept (also known as LEA29Y and Nulojix; SEQ ID NO:49), which is a CTLA4-Ig fusion protein carrying a substitution of an alanine residue to a tyrosine residue at position 29 (A29Y) and another substitution of a leucine residue to a glutamate residue at position 104 (L104E) of SEQ ID NO:10 (Larsen et al., Am. J. Transplant. 5:443-453, 2005; Oshima et al., Protein Eng. Des. Sel. 29:159-167, 2016), was purchased from Creative Biomart (Cat. No. THP-0109, Shirley, N.Y.) and used as a reference in the experiments.
as §1
(§8) The binding patterns of HuABC2-CH3-CTLA4YE, HuABC2-Ck-CTLA4YE, HuABC2-CTLA4YE-VH, HuABC2-CTLA4YE-Vk and belatacept to CHO-K1/CD80 cells are shown in FIG. 9A. While the binding of each of HuABC2-CTLA4YE-VH and HuABC2-CTLA4YE-Vk to CD80 was only slightly weaker than the binding of belatacept, the binding of HuABC2-CH3-CTLA4YE and HuABC2-Ck-CTLA4YE was a lot weaker than that of belatacept.

CD86-FLAG-GPI [9] = biological target: T2, CD86-FLAG-GPI; assay: flow cytometry on CHO-K1/CD86 cells, binder at 625 ng/ml, PE anti-human IgG
Procedure: as §7, §1
as §8, with “CHO-K1/CD86” for “CHO-K1/CD80”, “9B. Like the case with CHO-K1/CD80 cells, while” for “9A. While”, “CD86” for “CD80”, “the binding” for “that”

mean channel fluorescence (MCF) (CD80-FLAG-GPI [1])	mean channel fluorescence (MCF) (CD86-FLAG-GPI [2])	binding result [3]	binding result [4]	binding result [5]	mean channel fluorescence (MCF) (CD80-FLAG-GPI [6])	mean channel fluorescence (MCF) (CD86-FLAG-GPI [7])	mean channel fluorescence (MCF) (CD80-FLAG-GPI [8])	mean channel fluorescence (MCF) (CD86-FLAG-GPI [9])	Binder
1810	118								HuABC77D-CH3-CTLA4YE (other, Bifunctional molecule: linker and variant CTLA-4 extracellular domain fused to the C-terminus of the HuABC77D heavy chain; encoded by pHC645; transient HEK293 supernatant) heavy: EVQLVESGGGLVQPGGSLRLSCAASGFDFSRYWMSWVRQAPGKGLEWIGEINPDSSTINYAPSLKDRFTISRDNAKNSLYLQMNSLRAEDTAVYYCARHDYDEGIYFDYWGQGTTVTVSSASTKGPSVFPLAPSSKSTSGGTAALGCLVKDYFPEPVTVSWNSGALTSGVHTFPAVLQSSGLYSLSSVVTVPSSSLGTQTYICNVNHKPSNTKVDKKV[gap - human IgG1 Fc with changes]SGGGGSGMHVAQPAVVLASSRGIASFVCEYASPGKYTEVRVTVLRQADSQVTEVCAATYMMGNELTFLDDSICTGTSSGNQVNLTIQGLRAMDTGLYICKVELMYPPPYYEGIGNGTQIYVIDPEPCPDSD light: DIQMTQSPSSLSASVGDRVTITCSASSRVIYMHWYQQKPGKAPKRWIYDTSKLASGVPSRFSGSGSGTEFTLTISSLQPEDFATYYCQQWSSNPPTFGGGTKVEIKRTVAAPSVFIFPPSDEQLKSGTASVVCLLNNFYPREAKVQWKVDNALQSGNSQESVTEQDSKDSTYSLSSTLTLSKADYEKHKVYACEVTHQGLSSPVTKSFNRGEC
		binds	binds	binds					HuABC2-CTLA4 (other, encoded by pHC624; tested as transient HEK293 culture supernatant) heavy: EVQLVESGGGLVQPGGSLRLSCAASGFTFSDFYMEWVRQAPGKGLEWIAASRNKANDYTTEYSASVKGRFIVSRDDSKNSLYLQMNSLKTEDTAVYYCARSYYRYDGMDYWGQGTTVTVSSASTKGPSVFPLAPSSKSTSGGTAALGCLVKDYFPEPVTVSWNSGALTSGVHTFPAVLQSSGLYSLSSVVTVPSSSLGTQTYICNVNHKPSNTKVDKKV[gap - human IgG1 Fc with changes]SGGGGSGMHVAQPAVVLASSRGIASFVCEYASPGKATEVRVTVLRQADSQVTEVCAATYMMGNELTFLDDSICTGTSSGNQVNLTIQGLRAMDTGLYICKVELMYPPPYYLGIGNGTQIYVIDPEPCPDSD light: EIVLTQSPATLSLSPGERATLSCSAISSVSYMYWYQQKPGQAPRLLIYDTSNLVSGVPARFSGSGSGTDYTLTISSLEPEDFAVYYCQQWNTYPYTFGGGTKVEIKRTVAAPSVFIFPPSDEQLKSGTASVVCLLNNFYPREAKVQWKVDNALQSGNSQESVTEQDSKDSTYSLSSTLTLSKADYEKHKVYACEVTHQGLSSPVTKSFNRGEC
4390	723				1880	917	1580	1180	Belatacept (Fc fusion, Human CTLA-4 extracellular domain with A29Y and L104E fused to the Fc region of human gamma-1 heavy chain; bought from Creative Biomart (Cat. No. THP-0109); also called LEA29Y; Nulojix) MHVAQPAVVLASSRGIASFVCEYASPGKYTEVRVTVLRQADSQVTEVCAATYMMGNELTFLDDSICTGTSSGNQVNLTIQGLRAMDTGLYICKVELMYPPPYYEGIGNGTQIYVIDPEPCPDSDQ[gap - human IgG1 Fc with changes]
